Values after ≈ are worked out from the molar mass of the structure shown.

Assay type in all cases: cell-based
Experiment [1] concerns Vesicular stomatitis. In words: microbe, parasite or virus in culture. Conditions: read-out: Minimum Inhibitory Concentration.
Experiment [2] deals with Influenza A2. Nature of the experiment: microbe, parasite or virus in culture. The conditions noted are these: read-out: Minimum Inhibitory Concentration.
The subject of experiment [3] is Respiratory virus. Nature of the experiment: Antiviral activity in cultured cells (inhibition of cytopathic effect). Conditions: virus I = Respiratory virus; complete inhibition of cytopathic effect by 100TCID50; read-out: Minimum Inhibitory Concentration. For orientation: Cytopathic effects are the visible damage that an infection or toxin causes in cultured cells.

For the compound `N=C(N)NNS(=O)(=O)c1cc(C(=O)O)c(Cl)cc1Cl` [Compound 22], the MIC in experiment [1] was 300 mg/L (≈ 917 µM); in experiment [2], 100 mg/L (≈ 306 µM).

As to `O=C(O)c1ccc(Cl)c(S(=O)(=O)NCCO)c1` [Compound 5], the MIC was found to be 300 mg/L (≈ 1070 µM) in experiment [1] and 100 mg/L (≈ 358 µM) in experiment [2].

As for `NS(=O)(=O)c1cc(C(=O)O)cc(Cl)c1Cl` [Compound 20], the values for the MIC in experiment [1] and in experiment [2] were 30 mg/L (≈ 111 µM) and 10 mg/L (≈ 37 µM), respectively.

For the compound `NS(=O)(=O)c1cc(C(=O)O)c(Cl)cc1F` [Compound 17], the MIC in experiment [1] and in experiment [2] was 300 mg/L (≈ 1180 µM) throughout.

Turning to `CN(CCO)S(=O)(=O)c1cc(C(=O)O)ccc1Cl` [Compound 6], the MIC in experiment [1] and in experiment [2] was 300 mg/L (≈ 1020 µM) in each case.

As for `NS(=O)(=O)c1cc(C(=O)O)c(F)cc1Cl` [Compound 16], the values for the MIC in experiment [1] and in experiment [2] were 100 mg/L (≈ 394 µM) and 300 mg/L (≈ 1180 µM), respectively.

Consider `O=C(O)c1ccc(Cl)c(S(=O)(=O)NNc2ccc(Cl)nn2)c1` [Compound 10], for which the MIC in experiment [1] and in experiment [2] was 300 mg/L (≈ 826 µM) in each case.

In the case of `Nc1cc(Cl)c(S(N)(=O)=O)cc1C(=O)O` [Compound 14], the MIC in experiment [1] and in experiment [2] was 300 mg/L (≈ 1200 µM) each time.

For the compound `N=C(N)NS(=O)(=O)c1cc(C(=O)O)c(Cl)cc1Cl` [Compound 21], the MIC in experiment [1] and in experiment [2] was 300 mg/L (≈ 961 µM) in each case.

Take `NC(=O)C(=O)NNS(=O)(=O)c1cc(C(=O)O)c(Cl)cc1Cl` [Compound 24]: the MIC in experiment [1] and in experiment [2] was 300 mg/L (≈ 842 µM) each time.

Consider `NC(=O)NNS(=O)(=O)c1cc(C(=O)O)c(Cl)cc1Cl` [Compound 23], for which the MIC in experiment [1] and in experiment [2] was 300 mg/L (≈ 914 µM) each time.

As for `O=C(O)c1ccc(Cl)c(S(=O)(=O)N2CCCC2)c1` [Compound 12], the MIC in experiment [1] and in experiment [2] was 300 mg/L (≈ 1040 µM) in each case.

Consider `NS(=O)(=O)c1ccc(Cl)cc1C(=O)O` [Compound 27], for which the MIC worked out at 300 mg/L (≈ 1270 µM) in experiment [1] and 30 mg/L (≈ 127 µM) in experiment [2].

With `NNS(=O)(=O)c1cc(C(=O)O)ccc1Cl` [Compound 7], the MIC in experiment [1] and in experiment [2] was 100 mg/L (≈ 399 µM) each time.

For the compound `CN1CCN(S(=O)(=O)c2cc(C(=O)O)ccc2Cl)CC1` [Compound 13], the MIC in experiment [1] and in experiment [2] was 300 mg/L (≈ 941 µM) in each case.

Turning to `NS(=O)(=O)c1cc(Cl)cc(C(=O)O)c1` [Compound 25], the MIC amounted to 300 mg/L (≈ 1270 µM) in experiment [1], 300 mg/L (≈ 1270 µM) in experiment [2] and 100 mg/L (≈ 424 µM) in experiment [3].

As to `NS(=O)(=O)c1cc(C(=O)O)c(Br)cc1Cl` [Compound 18], the MIC is 300 mg/L (≈ 954 µM) in experiment [1] and 30 mg/L (≈ 95.4 µM) in experiment [2].

Consider `NS(=O)(=O)c1cc(C(=O)O)cc([N+](=O)[O-])c1Cl` [Compound 15], for which the MIC in experiment [1] and in experiment [2] was 300 mg/L (≈ 1070 µM) each time.

Take `CONS(=O)(=O)c1cc(C(=O)O)ccc1Cl` [Compound 4]: the MIC in experiment [1] and in experiment [2] was 300 mg/L (≈ 1130 µM) in each case.

With `NS(=O)(=O)c1cc(Br)cc(C(=O)O)c1` [Compound 26], the MIC in experiment [1] and in experiment [2] was 300 mg/L (≈ 1070 µM) in each case.

For the origin of these results see patent publication EP0068408A1 (priority 1981, dated 1983).
